± gives the standard error. Variants at the floor of the assay are shown more often than the library holds them.
B1: glmS ribozyme (parent)
chain: AUAAAAGCGCCAGAACUACAGAAAUGUAGUUGACGAGGAGGAGGUUUAUCGAAUUUUCGGCGGAUGCCUCCAAA

Experiments:
Conditions in all cases: with glucosamine-6-phosphate
[1] = variants of: B1; test: self-cleavage kobs at 40 uM GlcN6P; higher = faster cleavage; RNA array
Outline: (§1)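 Weighted Michaelis–Menten fits across concentrations supplied kcat and KM, based on kobs from one- or two-exponential decay fits to normalised per-tile medians. The data came from barcoded ribozyme variants transcribed in situ by E. coli RNA polymerase on sequenced MiSeq chips and tracked at 37 °C by a hybridised Cy3 probe. Glucosamine-6-phosphate (40 μM to 10 mM) in HEPES/KCl/Mg(OAc)2 buffer was flowed in.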

[2] = variants of: B1; test: self-cleavage kobs at 160 uM GlcN6P; higher = faster cleavage; RNA array
Outline: as §1

[3] = variants of: B1; test: self-cleavage kobs at 10000 uM GlcN6P; higher = faster cleavage; RNA array
Outline: as §1

[4] = variants of: B1; test: self-cleavage kobs at 640 uM GlcN6P; higher = faster cleavage; RNA array
Outline: as §1

[5] = variants of: B1; test: self-cleavage kobs at 2500 uM GlcN6P; higher = faster cleavage; RNA array
Outline: as §1

Variant	self-cleavage kobs at 40 uM GlcN6P [1]	self-cleavage kobs at 160 uM GlcN6P [2]	self-cleavage kobs at 10000 uM GlcN6P [3]	self-cleavage kobs at 640 uM GlcN6P [4]	self-cleavage kobs at 2500 uM GlcN6P [5]
U46G G62A	< 1e-05 s⁻¹	< 1e-05 s⁻¹	< 1e-05 s⁻¹		
U46G A53U	0.000116 ± 2.4e-05 s⁻¹		0.00566 ± 0.00098 s⁻¹	0.00141 ± 0.00032 s⁻¹	0.00253 ± 0.00059 s⁻¹
G43C G62A	< 1e-05 s⁻¹	< 1e-05 s⁻¹	< 1e-05 s⁻¹	< 1e-05 s⁻¹	< 1e-05 s⁻¹
G43U U45A	< 1e-05 s⁻¹	< 1e-05 s⁻¹			
A52G C68U	2.35e-05 ± 7.7e-06 s⁻¹	9.18e-05 ± 1.1e-05 s⁻¹	0.000858 ± 9.2e-05 s⁻¹	0.00015 ± 1.7e-05 s⁻¹	0.000377 ± 4e-05 s⁻¹
A53G G59C	< 1e-05 s⁻¹	< 1e-05 s⁻¹	< 1e-05 s⁻¹	< 1e-05 s⁻¹	
A52G A64G	2.83e-05 ± 7.3e-06 s⁻¹				
C50G G59A	4.42e-05 ± 2.2e-05 s⁻¹	8.57e-05 ± 2.1e-05 s⁻¹			
G51C A53C U57G	< 1e-05 s⁻¹		< 1e-05 s⁻¹		
G60C C68G	< 1e-05 s⁻¹		< 1e-05 s⁻¹		
G51C U54A	< 1e-05 s⁻¹				
U55A C61U	< 1e-05 s⁻¹	< 1e-05 s⁻¹			
G43A G59A	< 1e-05 s⁻¹	< 1e-05 s⁻¹	< 1e-05 s⁻¹	< 1e-05 s⁻¹	< 1e-05 s⁻¹
C58A G59U C68U	< 1e-05 s⁻¹				
U46G A48G	< 1e-05 s⁻¹		7.08e-05 ± 1e-05 s⁻¹		5.4e-05 ± 1.2e-05 s⁻¹
C58A A64U	< 1e-05 s⁻¹		< 1e-05 s⁻¹		< 1e-05 s⁻¹
U47A A64U G66U	< 1e-05 s⁻¹	< 1e-05 s⁻¹			
G44U G62C	< 1e-05 s⁻¹	< 1e-05 s⁻¹	< 1e-05 s⁻¹	< 1e-05 s⁻¹	< 1e-05 s⁻¹
A48U G51A G62A	< 1e-05 s⁻¹				
U56G G59C	< 1e-05 s⁻¹	< 1e-05 s⁻¹		< 1e-05 s⁻¹	
U47A A52C	< 1e-05 s⁻¹				
C61G G66U	< 1e-05 s⁻¹	< 1e-05 s⁻¹	< 1e-05 s⁻¹		
G59U C61U	< 1e-05 s⁻¹		< 1e-05 s⁻¹	< 1e-05 s⁻¹	
G44A A64G	< 1e-05 s⁻¹				
G43A U69C C70G	< 1e-05 s⁻¹				

Variant	self-cleavage kobs at 40 uM GlcN6P [1]	self-cleavage kobs at 160 uM GlcN6P [2]	self-cleavage kobs at 10000 uM GlcN6P [3]	self-cleavage kobs at 640 uM GlcN6P [4]	self-cleavage kobs at 2500 uM GlcN6P [5]
U47A C50A	< 1e-05 s⁻¹				
G44C U56C	< 1e-05 s⁻¹				
U54G C70U	0.00112 ± 0.00013 s⁻¹				
G60U C67U	< 1e-05 s⁻¹	< 1e-05 s⁻¹	< 1e-05 s⁻¹	< 1e-05 s⁻¹	
C61U A64C U65C C71U	< 1e-05 s⁻¹				< 1e-05 s⁻¹
U46A U47G U57G G60U	< 1e-05 s⁻¹		< 1e-05 s⁻¹	< 1e-05 s⁻¹	< 1e-05 s⁻¹
C50U U55C	< 1e-05 s⁻¹	< 1e-05 s⁻¹			
G43A U65G	< 1e-05 s⁻¹	< 1e-05 s⁻¹		< 1e-05 s⁻¹	
G43C A52C	< 1e-05 s⁻¹			< 1e-05 s⁻¹	
G44C C61A	< 1e-05 s⁻¹		< 1e-05 s⁻¹	< 1e-05 s⁻¹	< 1e-05 s⁻¹
A53U U56A	0.000172 ± 2.1e-05 s⁻¹	0.000573 ± 8e-05 s⁻¹	0.00667 ± 0.00065 s⁻¹	0.00169 ± 0.0002 s⁻¹	0.00313 ± 0.00052 s⁻¹
U54G C61G	< 1e-05 s⁻¹				
G59U C68A	< 1e-05 s⁻¹				
G60A G66U	< 1e-05 s⁻¹				
A53G G60C	< 1e-05 s⁻¹		< 1e-05 s⁻¹		
U55C C61G	< 1e-05 s⁻¹				
U46C G51U	< 1e-05 s⁻¹	< 1e-05 s⁻¹		< 1e-05 s⁻¹	< 1e-05 s⁻¹
A53U G66A C67U	7.59e-05 ± 1.6e-05 s⁻¹				
U54C C61A	< 1e-05 s⁻¹		< 1e-05 s⁻¹		
U45G A48C	< 1e-05 s⁻¹	< 1e-05 s⁻¹			
A48U U57A	< 1e-05 s⁻¹		< 1e-05 s⁻¹	< 1e-05 s⁻¹	< 1e-05 s⁻¹
U46G U54G	0.000155 ± 2.6e-05 s⁻¹	0.000596 ± 0.00017 s⁻¹	0.0102 ± 0.003 s⁻¹	0.00224 ± 0.0004 s⁻¹	0.00479 ± 0.0013 s⁻¹
A52U G59C	< 1e-05 s⁻¹		< 1e-05 s⁻¹	< 1e-05 s⁻¹	< 1e-05 s⁻¹
A48U C67G	< 1e-05 s⁻¹		4.58e-05 ± 8.4e-06 s⁻¹		
U49C G63U	< 1e-05 s⁻¹		< 1e-05 s⁻¹	< 1e-05 s⁻¹	< 1e-05 s⁻¹
